PubChem BioAssay AID1346428 (National Center for Advancing Translational Sciences (NCATS), 2018)
In all, about 48,000 compounds went through this assay and about 1,200 (2.5%) were called active. Inconclusive results (about 2%) are left out.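 The calls were made as follows: active = activation of at least 60% and not above a set upper limit (about 1 call in 100 departs from these limits); inconclusive = activation of 40% to 60%, or above that upper limit; inactive = activation under 40%.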 Some of the results follow.

The molecules below were run against Probable G-protein coupled receptor 32 (Homo sapiens) (UniProt O75388) (assay: qHTS for Agonists of Human Resolvin D1 Receptor DRV1). Settings: CHO-K1 GPR32 beta-arrestin PathHunter luminescence, 90 min; at 76.9 µM; hits give high values; zero percent set by DMSO-only wells.
In short: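 Beta-arrestin recruitment read-out: luminescence from complemented beta-Gal in CHO-K1 GPR32 PathHunter cells, measured 1 h after detection reagent at ambient temperature following 90 min compound exposure at 37 °C; DMSO served as basal (EC0) control.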
Also: 0% is about no effect.

UniProt O75388, sequence (O75388 whole entry, looked up): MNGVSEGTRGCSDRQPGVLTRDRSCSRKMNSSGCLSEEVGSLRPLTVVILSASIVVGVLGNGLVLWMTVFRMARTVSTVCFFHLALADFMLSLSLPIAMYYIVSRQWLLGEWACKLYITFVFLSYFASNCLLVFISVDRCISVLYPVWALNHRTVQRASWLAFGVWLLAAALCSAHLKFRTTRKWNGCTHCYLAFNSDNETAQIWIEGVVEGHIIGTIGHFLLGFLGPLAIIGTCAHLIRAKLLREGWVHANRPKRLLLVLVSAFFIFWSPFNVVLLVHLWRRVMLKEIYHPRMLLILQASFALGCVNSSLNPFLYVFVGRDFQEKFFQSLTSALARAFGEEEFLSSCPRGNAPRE

activation, active:
CCC(C)Nc1ncnc2c1cnn2-c1ccc(F)cc1 (centres undefined) 65.1%, COc1ccc(NS(=O)(=O)c2ccc3nc(-c4ccccc4)[nH]c3c2)cc1 116%, CN(C)c1ccc(CNC(=O)Cn2c(=O)oc3cc(S(=O)(=O)N4CCCCCC4)ccc32)cc1 113%

activation, inactive:
O=C1CCCc2cc(S(=O)(=O)N3CCCC(C(=O)NCc4ccc(Cl)cc4)C3)ccc2N1 (centres undefined) 45.7%, O=c1[nH]c2ccc(NCc3ccc(-c4ccc(Br)cc4)o3)cc2[nH]1 -24.1%, CCOC(=O)c1c(NC(=O)c2nc(S(C)(=O)=O)ncc2Cl)sc(C(C)=O)c1C 5.83%, Cc1ccc2ncc(C(=O)Nc3ccc(OC(F)(F)F)cc3)c(=O)n2c1 9.23%, O=C(CSc1nnc(-c2ccc(F)cc2)o1)N1CCCc2ccccc21 -9.88%, Cc1ccc(CSc2nnc3[nH]c(=O)cc(-c4ccccc4)n23)cc1 3.44%, O=C(O)c1ccccc1-c1ccc(C(F)(F)F)cc1 17%, COc1cc(OC)c(NS(=O)(=O)c2ccc3oc(=O)c4ncn(C)c4c3c2)cc1Cl -13.1%, COc1ccc(-n2c(SCC(=O)NCc3ccc(C)cc3)nc3n[nH]c(C)c3c2=N)cc1 -17%, Fc1ccc(-c2nc(Nc3cccc(C(F)(F)F)c3)nc3c2COc2ccccc2-3)cc1 -2.25%, COC(=O)c1sccc1S(=O)(=O)N(CC(=O)NCc1ccc(C)cc1)c1ccc(C)cc1 -5.04%, COc1ccc(N2CCN(CCCNC(=O)Nc3ccccc3)CC2)cc1 38.8%, COc1ccc(C2C=C(c3ccc(Cl)c(Cl)c3)Nc3ncnn32)cc1 (centres undefined) 2.74%, O=C(CCC1N=C2c3ccccc3N=C(SCc3ccc(Cl)cc3)N2C1=O)N1CCN(c2ccccc2)CC1 (centres undefined) -8.59%, CC(C)(C)c1ccc(OCc2nnc(-c3ccccc3)o2)cc1 2.6%, CCn1cc(C(=O)NCc2ccc(Cl)cc2)c(=O)c2cc(S(=O)(=O)N(C)C3CCCCC3)ccc21 8.44%, CCOC(=O)C1=C(CN2CCN(c3cccc(Cl)c3)CC2)NC(=O)NC1c1ccc(Cl)cc1 (centres undefined) -8.42%, COc1ccc(S(=O)(=O)NCCSc2nnnn2-c2ccccc2)cc1 29.9%, COc1ccc(NC(=O)CCCn2nc(C)c3sc4ccccc4c3c2=O)cc1 -6.75%, CC(CNC(=O)c1ccc2nc(Cc3ccccc3)oc2c1)c1ccccc1 (centres undefined) -16.8%, Cc1cc(-n2c(C)nc3ccccc3c2=O)ccc1NC(=O)C(F)(F)F 49.5%, Fc1ccc(C2=CC(c3ccc(F)cc3)n3c(nc4ccccc43)N2)cc1 (centres undefined) -43.2%, O=C(Cn1ncc2c3ccccc3n(Cc3ccc(F)cc3)c2c1=O)NCc1cccs1 -2.11%, COc1ccc(-c2nc(CSCC(=O)N3CCN(c4ccc(F)cc4)CC3)c(C)o2)cc1 -7.04%, CC1CCCN(S(=O)(=O)c2ccc3c(c2)CCN3C(=O)CCC(=O)O)C1 (centres undefined) 6.02%, Cc1cccc(Cc2c(C)nc3c(-c4ccccc4)c(C)[nH]n3c2=O)c1 -61.9%, Cc1cc(C(=O)Nc2ccc(-n3c(C)nc4ccccc4c3=O)cc2)ccc1[N+](=O)[O-] 21.6%, CCN(Cc1ccccc1)C(=O)c1cnn(-c2ccc(F)cc2)c1-n1cccc1 40.7%, CCC(Sc1nnc(C)n2c1cc1occc12)C(=O)Nc1ccccc1OC (centres undefined) -4.66%, Cc1ccc(NC(=O)c2cnn3c2NC(c2ccccc2)=CC3c2ccccc2)cc1 (centres undefined) -10.3%, CCCn1c2ccccc2c2nnc(SCC(=O)Nc3cccc(C(C)=O)c3)nc21 -4.67%, CC(=O)c1sc(N2C(=O)c3oc4ccccc4c(=O)c3C2c2ccc(C)cc2)nc1C (centres undefined) 19.8%, CC(=O)c1ccc(NC(=O)Cn2nc(N3CCN(c4ccccc4)CC3)ccc2=O)cc1 -19.7%, COc1ccccc1OC(C)C(=O)Nc1cccc(-c2nc3ccccc3o2)c1 (centres undefined) 1.28%, CCc1ccc(NS(=O)(=O)c2ccc3[nH]cc(C(=O)NCCCOC(C)C)c(=O)c3c2)cc1 -5.26%, COc1ccccc1CNC(=O)CSC1=Nc2ccccc2N=C(c2ccc(F)cc2)C1 -16.8%, Cc1ccc(Cl)cc1N1CCN(S(=O)(=O)c2ccc3c(c2)CCN3C(=O)C2CCC2)CC1 -5.22%, O=C(NCc1cccnc1)c1nn(-c2ccc(F)cc2)nc1CO -5.96%, CCCSc1nc2c([nH]c3ccccc32)c(=O)n1C -3.94%, CC(C)c1nc2ccc(C(=O)Nc3ccccc3F)cc2o1 -11.4%, O=C(Nc1ccccc1Cl)c1sc2cccc(Cl)c2c1Cl 9.53%, COc1ccc(NC(=O)c2oc3ccccc3c2NC(=O)COc2ccc(C(C)C)cc2)c(OC)c1 18%, CCSc1nc2n(n1)C(c1ccc(C(=O)O)cc1)C(C(=O)Nc1ccccc1C)=C(C)N2 (centres undefined) 45.2%, CN1C(C(=O)Nc2ccc(OC(F)(F)F)cc2)=CC(c2cccs2)=NS1(=O)=O -5.47%, COc1cccc(NC(=O)Cn2c(=O)n(Cc3ccccc3)c(=O)c3ccccc32)c1 -0.216%, CCOc1cc(CNC(=O)CN2CCSc3ccccc32)cc(OCC)c1OCC 42.8%, Cc1ccc(N(CC(=O)Nc2ccc(Cl)cc2)S(=O)(=O)c2cccc3nonc23)cc1 -27.3%, Cc1ccc(NC(=O)Cc2coc3ccc(C(C)C)cc23)cc1Cl 17.5%, COc1ccc(-c2nc3c(c(SCC(=O)N4CCCCC4)n2)Cc2cc(Cl)ccc2O3)cc1 -9.83%, CCOC(=O)c1c(NC(=O)c2ccc(OC)cc2)sc2c1CCCCC2 6.41%, O=C(COc1ccccc1)Nc1ccc2nc(SCC(=O)N3CCOCC3)sc2c1 16.1%, Cc1ccc(-n2ncc(C(=O)N3CCCCC3)c2C2CCN(C(=O)OC(C)(C)C)CC2)c(C)c1 1.71%, CCCS(=O)(=O)c1nc(S(=O)(=O)c2ccc(C)cc2)c(NC)s1 -10.3%, COc1ccc(-n2c(=O)[nH]c3cc(C(=O)NCCc4ccccc4)ccc3c2=O)cc1OC 16.3%, O=C(CCC(=O)c1ccc(F)cc1)Nc1ccc(Cl)cc1 3.03%, CCOc1ccc(CNC(=O)C2CCCCN2S(=O)(=O)c2ccc(F)cc2)cc1OC (centres undefined) 13.7%, CCn1cc(S(=O)(=O)c2cccc(C)c2)c(=O)c2cc(F)c(N3CCCC(C)C3)cc21 (centres undefined) 0.0169%, O=C(c1ccc2c(c1)N(Cc1ccccc1F)C(=O)c1ccccc1S2(=O)=O)N1CCN(c2ccccn2)CC1 -19.1%, COc1ccc(-c2nc3c(c(SC)n2)Cc2c(CO)cnc(C)c2O3)cc1 -4.71%, CCn1c(=O)c2cc(C(=O)NCCCN3CCN(C)CC3)sc2c2ccccc21 7.61%, Cc1ccccc1NC(=O)c1c(C)oc2ccc(O)c(CN3CCOCC3)c12 22.8%, O=C(CSc1n[nH]c(-c2ccccc2Cl)n1)NCc1ccc(F)cc1 -15.9%, COc1ccc(S(=O)(=O)NCc2nc3nc(C)cc(C)n3n2)cc1 -7.42%, Cc1ccc(Nc2c(-c3ccc(Br)o3)nc3ccccn23)cc1 -10.9%, NC(=O)c1c(NC(=O)CS(=O)(=O)c2ccc(Cl)cc2)sc2c1CCCCC2 4.44%, O=C(NCCCN1CCN(c2cccc(Cl)c2)CC1)c1sc2ncccc2c1-n1cccc1 -3.71%, Cc1ccc(-c2nc(CS(=O)(=O)CC(=O)Nc3ccc(Br)cc3F)c(C)o2)cc1 -11.6%, CCC(=O)Oc1c(Sc2ccc(Cl)cc2)c(C)nn1-c1ccccc1 -2.97%, Cc1ccc(Cl)cc1N1CCN(C(=O)Cn2ncc3c4ccccc4n(C)c3c2=O)CC1 22.6%, CCOc1ccc(NC(=O)CSC2=Nc3ccccc3C3=NC(CCC(=O)NCc4ccco4)C(=O)N23)cc1 (centres undefined) -2.77%, Cc1ccc(-c2csc(-c3cc4c([nH]c3=O)CC(c3ccccc3)CC4=O)n2)cc1 (centres undefined) -22.2%, CC1CCCN(c2nc3c(-c4ccc(Cl)cc4)nnn3c3ccccc23)C1 (centres undefined) -12.9%, Cc1cc(Cl)ccc1NS(=O)(=O)c1c(C(=O)N2CCC(C)CC2)c(C)n(C)c1C -26.4%, Cc1cc2c(cc1S(=O)(=O)Nc1ccc(OC(F)(F)F)cc1)OCC(=O)N2 -3.96%, CCN(CC)S(=O)(=O)c1ccc2c(c1)N(CC(=O)NCc1ccccc1)C(=O)C1CCCCN21 (centres undefined) -17.7%, COc1ccc2oc(=O)c(-c3nnc(-c4ccc(C)cc4)o3)cc2c1 -12.5%, O=C(CSc1oc(-c2ccccc2)nc1S(=O)(=O)c1ccc(Cl)cc1)c1ccccc1 -16.5%, Cc1ccc2c(=O)cc(C(=O)Nc3ccc(S(=O)(=O)Nc4onc(C)c4C)cc3)oc2c1C 0.341%, Cc1ccc(-n2cc(C(=O)Oc3ccc(F)cc3)c3ccccc3c2=O)cc1 -13.5%, O=C(CC1C(=O)N(c2ccc(F)cc2)C(=O)N1Cc1ccc2c(c1)OCO2)Nc1ccc(Cl)cc1 (centres undefined) 32.2%, Cc1cc(C)nc(-n2nc(C)c3c2N(Cc2ccccc2)C(=O)CC3c2ccc(Cl)cc2)n1 (centres undefined) -18.9%
